Hit rate of the full screen: of about 220,000 compounds, about 16,000 (7.3%) were called active. This list was built around the results that the source calls inconclusive (neither active nor inactive); the mix of calls is not that of the screen. Calls come from the whole dose curve; as a rule, active = well fitted inhibition curve with a large enough effect (not every such curve was filed as active); inconclusive = small, poorly fitted or top-dose-only effect, or another doubt; inactive = no such curve, though single readings can be large or run the other way. No potency is given beside an inconclusive call; the fits are too rough.
molecular target: Aldehyde dehydrogenase 1A1 (Homo sapiens) (UniProt P00352); test: qHTS Assay for Inhibitors of Aldehyde Dehydrogenase 1 (ALDH1A1); settings: Purified ALDH1A1, NADH fluorescence, propionaldehyde substrate; series mostly up to 75.3 µM; activity, negative = inhibition: at the top concentration;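 for activity, negative = inhibition: plate controls were no enzyme wells and a reference inhibitor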
Potency is the fitted concentration of half-maximal effect; tags give direction and shape of the fitted curve.

Sequence of UniProt P00352 (P00352 whole entry, looked up): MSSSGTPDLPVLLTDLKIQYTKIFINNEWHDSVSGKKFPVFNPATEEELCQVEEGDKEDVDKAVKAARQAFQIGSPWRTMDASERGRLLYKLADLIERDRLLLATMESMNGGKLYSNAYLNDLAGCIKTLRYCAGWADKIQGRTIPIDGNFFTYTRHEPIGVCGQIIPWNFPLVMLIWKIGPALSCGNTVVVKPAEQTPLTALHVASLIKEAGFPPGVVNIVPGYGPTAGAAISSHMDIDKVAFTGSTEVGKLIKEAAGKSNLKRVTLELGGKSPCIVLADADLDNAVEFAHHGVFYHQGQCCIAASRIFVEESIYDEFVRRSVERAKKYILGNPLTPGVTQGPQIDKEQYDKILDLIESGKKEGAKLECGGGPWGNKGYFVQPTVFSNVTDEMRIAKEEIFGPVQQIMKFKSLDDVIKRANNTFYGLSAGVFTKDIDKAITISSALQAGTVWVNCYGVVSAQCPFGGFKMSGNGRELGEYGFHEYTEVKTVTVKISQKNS

| Compound | Potency | activity, negative = inhibition |
| --- | --- | --- |
| CC(C)NC(=S)N=Nc1c(O)[nH]c2ccc([N+](=O)[O-])cc12 | active: 10 µM |  |
| Cc1ccc(S(=O)(=O)c2nc(-c3ccccc3)oc2NCCN2CCOCC2)cc1 | inconclusive [inhibitor, single point] |  |
| COc1ccc(CNC(=O)Cc2nn(C)c(=O)c3ccccc23)cc1 |  | inactive: 0.115% |
| CCOn1c(=O)c[n+]([O-])c2ccccc21 | inconclusive [inhibitor, single point] |  |
| CN1c2cccc3cccc(c23)N(C)C1c1cccs1 | inconclusive [inhibitor, partial curve] |  |
| O=C(Oc1ccc2c(=O)c(Oc3ccc4ccccc4c3)coc2c1)c1cccnc1 |  | inactive: -10.5% |
| Fc1cccc(F)c1CSc1nc2ccccc2[nH]1 |  | inactive: -3.89% |
| O=C(CSc1nc2cc(Cl)ccc2s1)N1CCCc2ccccc21 | active: 8.91 µM |  |
| O=[N+]([O-])c1c(C(Cl)Cl)nn(-c2ccccc2)c1N1CCOCC1 |  | inactive: -8.22% |
| CC(=O)Nc1ccc(S(=O)(=O)N(C)c2ccc(O)cc2)cc1 | inconclusive [inhibitor, single point] |  |
| CCN(CC)CCNC(=O)c1ccc(NC(=O)c2cn(-c3ccccc3)nc2-c2cccs2)cc1 | inconclusive [inhibitor, single point] |  |
| CN1CCc2nc(SCC(=O)Nc3cccc(F)c3)c(C#N)c(-c3cccs3)c2C1 | active: 8.91 µM |  |
| CCN=C1SC(C(=O)NCCc2ccccc2)CC(=O)N1CC (stereo not drawn) | inconclusive [inhibitor, single point] |  |
| C/C(Cl)=C/Cn1c(SCc2ccc(Cl)cc2)nc2c1c(=O)[nH]c(=O)n2C | inconclusive [inhibitor, single point] |  |
| N#Cc1nc(N2CCCCC2)nc(N2CCOCC2)n1 | inconclusive [inhibitor, single point] |  |
| COc1ccc(-c2n(Cc3ccccc3)c3ccccc3[n+]2Cc2ccccc2)cc1 | inconclusive [inhibitor, single point] |  |
| COCCn1c(=O)c(-c2ccc(OC)cc2)nc2cnc(Oc3ccc(OC)cc3)nc21 | inconclusive [inhibitor, single point] |  |
| COC(=O)c1c(C)[nH]c(C(=O)CC#N)c1C | inconclusive [inhibitor, full curve] |  |
| O=S(=O)(c1ccc2c(c1)C(=NO)c1cc(S(=O)(=O)N3CCCCC3)ccc1-2)N1CCCCC1 | inconclusive [inhibitor, partial curve] |  |
| O=[N+]([O-])c1cc(/C=N/O)ccc1Sc1ccccc1 | inconclusive [inhibitor, partial curve] |  |
| CN(C)C(CNC(=O)c1ccc2c(c1)S(=O)(=O)c1ccccc1C2=O)c1ccco1 (stereo not drawn) | inconclusive [inhibitor, partial curve] |  |
| O=C(COC(=O)/C=C/c1cn(-c2ccccc2)nc1-c1cccnc1)Nc1ccc(Cl)cc1Cl | inconclusive [inhibitor, single point] |  |
| Cc1ccccc1OS(=O)(=O)c1cn(C)c(=O)n(C)c1=O |  | inactive: 16.9% |
| CCC(C)/C(C)=N/NC(=O)c1cn(-c2ccccc2)nc1-c1ccccc1 (stereo not drawn) | active: 6.31 µM |  |
| COC(=O)[C@H]1[C@@H](C)N(Cc2ccccc2)C(=O)N[C@H]1c1cccc(C(F)(F)F)c1 |  | inactive: 12.2% [at 13.5 µM] |

| Compound | Potency | activity, negative = inhibition |
| --- | --- | --- |
| O=C(CN1CCN(c2ccccn2)CC1)Nc1ccc(OCc2ccccc2)cc1 | inconclusive [inhibitor, single point] |  |
| CCn1c(-c2cc3c(C(F)(F)F)nn(C)c3s2)n[nH]c1=S | inconclusive [inhibitor, partial curve] |  |
| OC1CCNC(=S)N1c1ccccc1 (stereo not drawn) |  | inactive: 10.4% |
| COc1ccc(NC(C)=O)cc1NC(=O)c1ccc2ccccc2c1 |  | inactive: -5.88% |
| Cc1ccc(NC(=O)c2ccc(Cl)c(N3C(=O)C=CC3=O)c2)cc1 | active: 3.16 µM |  |
| N#CC(=C=[N-])c1nc2ccccc2nc1-[n+]1cccc(NC(=O)c2ccc(F)cc2)c1 |  | inactive: -8.47% |
| Cc1cc(C)c(S(=O)(=O)N2CCN(C)CC2)c(C)c1 |  | inactive: 6.36% |
| CN(C)c1ccc(-c2cncnc2NCCc2cnc[nH]2)cc1 | inconclusive [inhibitor, single point] |  |
| COc1ccc(Oc2ncc3nc(-c4ccccc4)c(=O)n(C4CC4)c3n2)cc1 | inconclusive [inhibitor, single point] |  |
| O=C(CNCC1CCCO1)Nc1ccc(N2CCCCCC2)cc1 (stereo not drawn) | active: 15.8 µM |  |
| Cc1ccc(/C(N)=N/OC(=O)CCc2ccccc2)cc1 | inconclusive [inhibitor, single point] |  |
| COCCN=C1Sc2nc3cc4c(cc3cc2CN1CC1CCCO1)OCO4 (stereo not drawn) | inconclusive [inhibitor, single point] |  |
| COC(=O)c1ccc(NC(=S)N2CCN(Cc3ccc(Cl)cc3)CC2)cc1 |  | inactive: 1.94% |
| O=C(CSc1ncccn1)NCc1cccs1 |  | inactive: 4.2% |
| COC(=O)c1ccc(C#CC(NP(=O)(c2ccccc2)c2ccccc2)c2ccccc2)cc1 (stereo not drawn) | inconclusive [inhibitor, single point] |  |
| OC[C@@H]1[C@@H](c2ccc(Cl)cc2)C(c2ccccc2)=NN1c1ccccc1 | inconclusive [inhibitor, partial curve] |  |
| CCOC(=O)C1=C(CNCc2ccc(F)cc2)NC(=O)NC1c1cccc([N+](=O)[O-])c1 (stereo not drawn) | inconclusive [inhibitor, single point] |  |
| Cc1cccc(/N=C/c2c(O)cc(C)oc2=O)n1 | inconclusive [inhibitor, single point] |  |
| O=C(O)C1C2C=CC(O2)C1C(=O)NCc1ccc(Cl)cc1 (stereo not drawn) |  | inactive: 3.31% |
| O=C(Cn1cnc2scc(-c3ccc(Br)cc3)c2c1=O)N1CCOCC1 |  | inactive: 3.96% |
| CN(Cc1cccc2cnccc12)C(=O)CCc1nnc(CCc2ccccc2)o1 | active: 28.2 µM |  |
| Cc1ccc(C(=O)c2cc([N+](=O)[O-])ccc2N2CCOCC2)cc1C | active: 31.6 µM |  |
| CC1(C)CN(c2cccc(Br)c2)C1=O | inconclusive [inhibitor, single point] |  |
| O=C(NCCC1=CCCCC1)c1coc(=O)c(Br)c1 | inconclusive [inhibitor, partial curve] |  |
| CCOC(=O)C1CCCN(C2CC(=O)N(c3cccc(C)c3)C2=O)C1 (stereo not drawn) | inconclusive [inhibitor, single point] |  |

| Compound | Potency | activity, negative = inhibition |
| --- | --- | --- |
| CCN(CC(=O)Nc1cccc(S(=O)(=O)N2CCCC2)c1)CC(=O)Nc1ccccc1OC |  | inactive: -2.66% |
| O=C(Nc1nc(-c2ccc3c(c2)OCCO3)cs1)c1ccc(S(=O)(=O)N2CCCCC2)cc1 | inconclusive [inhibitor, partial curve] |  |
| CCCOc1ccc2cc(-c3ccccn3)c(=O)oc2c1 | inconclusive [inhibitor, partial curve] |  |
| Cc1nc(Cl)sc1C(=O)O | inconclusive [inhibitor, single point] |  |
| CC(C)(C)c1ccc(/C=N/Nc2ccc(C(=O)O)cc2)cc1 |  | inactive: 3.57% |
| NC(=O)CSc1nnc(-c2cc(-c3ccc(Cl)cc3)nc3ccccc23)o1 |  | inactive: -1.45% |
| N/C(=N\OC(=O)c1cc(Cl)ccc1Cl)c1ccccn1 | inconclusive [inhibitor, partial curve] |  |
| CC1=Nc2ccc(C)cc2/C1=C/c1c(N)n2c(S(=O)(=O)C(C)C)nsc2nc1=O | inconclusive [inhibitor, single point] |  |
| CCOc1ccc(C(=O)Nc2ccccc2-c2ccccc2)cc1Cl | inconclusive [inhibitor, partial curve] |  |
| CC(C)C(=O)N1CCN(c2ccc([N+](=O)[O-])c(NC(C)c3ccccc3)c2)CC1 (stereo not drawn) | active: 22.4 µM |  |
| COC(=O)c1ccc(C23CC4(C2)[C@H](CN(CC2CCCCC2)[C@@H]4c2ccccc2)C3c2ccccc2)cc1 (stereo partly drawn) | inconclusive [inhibitor, single point] |  |
| Cc1ccc(S(=O)(=O)c2c(C)nn(C(C)(C)C)c2OC(=O)c2ccc(Br)o2)cc1 | inconclusive [inhibitor, single point] |  |
| CCOC(=O)c1c(NC(=O)CCc2ccc(CC)o2)sc(C)c1C | inconclusive [inhibitor, single point] |  |
| COC(=O)c1cc(C(=O)c2cc(Cl)ccc2O)coc1=N | inconclusive [inhibitor, single point] |  |
| CS(=O)(=O)N(CC(=O)NCCC1=CCCCC1)c1ccc2c(c1)OCO2 | inconclusive [inhibitor, single point] |  |
| COC(=O)CSc1nc2cc3c(cc2cc1C)OCO3 | inconclusive [inhibitor, single point] |  |
| CN(C)CCN=Cc1c(O)n(Cc2ccc3c(c2)OCO3)c(=O)c2ccccc12 |  | inactive: -1.07% |
| O=C(Nc1cccc(Cl)c1)Nc1ccccc1-n1ccnc1 |  | inactive: -11.1% |
| C=CCn1c(SCc2nc3ccccc3c(=O)[nH]2)nnc1-c1cc2cc(Cl)ccc2o1 | inconclusive [inhibitor, partial curve] |  |
| COc1cc(/C=N/NC(N)=O)cc([N+](=O)[O-])c1O |  | inactive: 4.1% |
| CCCn1c(SCCc2ccccc2)nc2c1c(=O)[nH]c(=O)n2C | inconclusive [inhibitor, single point] |  |
| O=C(N/N=C/c1cc([N+](=O)[O-])ccc1O)C1C2CCCCC21 (stereo not drawn) |  | inactive: -2.93% |
| Cn1ccnc1C1CCCCN1Cc1nc(-c2ccc(Cl)cc2)no1 (stereo not drawn) | inconclusive [inhibitor, single point] |  |

— PubChem BioAssay AID1030 (National Center for Advancing Translational Sciences (NCATS), 2008)
